Results: PubChem BioAssay AID485344 (National Center for Advancing Translational Sciences (NCATS), 2010)
Out of some 340,000 compounds screened, about 6,900 (2%) were called active. Cut-off read from the data, not from the text of the source: active = inhibition above about 30%; inactive = below that, where a call was filed. The entries are a selection whose mix differs from that of the whole data set. The source gives no active or inactive call for entries shown without one.

target: D(2) dopamine receptor (Homo sapiens) (UniProt P14416); test: HTS Assay for Allosteric Antagonists of the Human D2 Dopamine Receptor: Primary Screen for Antagonists; details: HEK293 TREx D2 cells, calcium flux, dopamine EC80; at 10 µM; stronger effect = higher value; note: 0% is about no effect
UniProt P14416, sequence (P14416 whole entry, looked up): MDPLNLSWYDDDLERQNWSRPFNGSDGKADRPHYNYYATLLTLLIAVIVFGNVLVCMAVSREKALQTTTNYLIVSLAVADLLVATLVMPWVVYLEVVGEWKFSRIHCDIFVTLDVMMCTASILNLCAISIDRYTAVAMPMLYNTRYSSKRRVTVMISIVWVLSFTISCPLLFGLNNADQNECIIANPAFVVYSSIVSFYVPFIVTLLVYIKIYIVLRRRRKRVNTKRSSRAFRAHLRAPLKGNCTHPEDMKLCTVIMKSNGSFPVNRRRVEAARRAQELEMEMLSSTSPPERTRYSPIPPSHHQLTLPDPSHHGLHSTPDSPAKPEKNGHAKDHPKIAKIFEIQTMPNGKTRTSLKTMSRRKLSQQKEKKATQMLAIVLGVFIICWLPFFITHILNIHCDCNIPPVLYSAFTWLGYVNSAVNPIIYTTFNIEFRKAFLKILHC
Method in brief: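 Dopamine at EC80 is the agonist stimulus; test compounds precede it by 180 s. Calcium flux read kinetically in a force-coupled, inducible HEK293 T-REx D2 cell line.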

| Compound | inhibition |
| --- | --- |
| Cc1ccc(N(CC(=O)Nc2ccc(F)cc2F)S(=O)(=O)c2cccs2)cc1 | 6.95% |
| CCC(=O)C1=C(c2ccccc2)N(C(=O)CC)n2c(nnc2-c2ccccc2)S1 | 20.5% |
| NC(=O)c1ccccc1NC(=O)CN1CCOCC1 | active: 31.4% |
| COc1ccc(-c2cccc(NS(=O)(=O)c3cc(C(F)(F)F)ccc3Cl)c2)nn1 | 12.6% |
| O=c1c(NCc2cccs2)nccn1-c1ccccc1 | -2.35% |
| COc1ccc(-n2cc(-c3ccccc3)c3c(N4CCCC(C)C4)ncnc32)cc1 (stereo unspecified) | 14.6% |
| CCc1nc2ccc(C(=O)NCc3ccccc3C)cc2nc1CC | 24.7% |
| Cc1ccc(CN2c3ccccc3-c3nc(SCC(=O)NCc4ccccc4)ncc3S2(=O)=O)cc1 | 6.65% |
| COc1ccc(C(=O)NCCc2csc(-c3ccc(Cl)cc3)n2)cc1 | 7% |
| CCOC(=O)c1cc2c(=O)n3ccccc3nc2n(CC2CCCO2)c1=NC(=O)c1cccc(C)c1 (stereo unspecified) | 14.6% |
| O=C(COc1ccccc1F)Nc1nnc(SCc2cc(=O)n3ccccc3n2)s1 | -8.5% |
| CCOC(=O)c1c(NC(=O)Nc2ccc(F)cc2)sc(C(=O)N(C)C)c1C | -6.11% |
| Cc1ccccc1Cn1nnc2sc3c(c2c1=O)CCCC3 | -8.9% |
| CCOc1ccc(NC(=O)Nc2nnc(N3CCCCC3C)s2)cc1 (stereo unspecified) | 13% |
| CCOC(=O)c1sc2ccccc2c1S(=O)(=O)Nc1ccc(OC)c(Cl)c1 | 19% |
| COc1cccc(CNC(=O)c2c(C)nn(-c3ccc(F)cc3)c2-n2cccc2)c1 | -5.47% |
| Cc1ccc(NC(=O)Nc2nnc(SCC(=O)N(C(C)C)C(C)C)s2)cc1 | 12.7% |
| O=S(=O)(NCCc1csc(-c2cccnc2)n1)c1cc(F)ccc1F | active: 39.4% |
| CCN(CC)c1ccc(C(=O)N2CCc3c([nH]c4ccccc34)C2c2ccc(F)cc2)cc1 (stereo unspecified) | -2.29% |
| CCN1CCCC1CNC(=O)c1ccc(Sc2ccc(F)cc2)c([N+](=O)[O-])c1 (stereo unspecified) | active: 34.7% |
| CC(=O)N1CCc2c(sc3c2c(=O)n(Cc2ccccc2)c(=O)n3Cc2ccc(Cl)cc2)C1 | 4.88% |
| Cc1cc(C)c(Cn2c(=O)n(CCC(=O)NCCc3ccccc3)c(=O)c3ccccc32)c(C)c1 | 14.2% |
| COc1ccc(OC)c(CCNC(=O)c2c(C)oc3ncn(CC(C)C)c(=O)c23)c1 | -9.37% |
| CN1CCN(C(CNC(=O)c2ccc(F)cc2)c2ccc3c(c2)OCO3)CC1 (stereo unspecified) | -24.9% |

| Compound | inhibition |
| --- | --- |
| CCOCCCn1c(SCC(=O)Nc2ccccc2CC)nc2ccccc2c1=O | 5.21% |
| CCOC(=O)Cn1c(=O)oc2cc(S(=O)(=O)N3CCN(c4cccc(Cl)c4)CC3)ccc21 | 4.95% |
| O=C(O)c1sc(Nc2ccccc2)nc1-c1ccccc1 | -11.4% |
| CCCCc1ccc(-n2nc3ccc(NC(=O)c4cc5ccccc5o4)cc3n2)cc1 | 1.8% |
| CC(C)Cc1cc(C(=O)NCc2ccc(Cl)cc2)no1 | -18.1% |
| Clc1ccc(CSc2ccc(-c3cccs3)nn2)cc1 | 9.38% |
| COc1ccc(C(=O)NCCSc2c[nH]c3ccccc23)cc1OC | 3.46% |
| CSc1ncc(C(=O)Nc2cc(C)cc(C)c2)c(-c2ccccc2)n1 | -7.22% |
| CCC(CC)C(=O)N1c2ccccc2C(C)(c2ccccc2)CC1(C)C (stereo unspecified) | -8.99% |
| COC(=O)CN1C(=O)CSc2ccc(S(=O)(=O)Nc3ccc(F)c(Cl)c3)cc21 | 0.0691% |
| COc1ccc(-n2c(=O)c3c4c(sc3n(Cc3ccc(F)cc3)c2=O)CN(C(C)=O)CC4)c(OC)c1 | 5.79% |
| O=C(Cn1cc(S(=O)(=O)Cc2cccc(Cl)c2)c2ccccc21)Nc1ccccc1C(F)(F)F | 14.6% |
| O=C(CCN=C1NS(=O)(=O)c2ccccc21)Nc1ccc(Cl)cc1F | active: 40.1% |
| COc1ccccc1CNC(=O)CSc1nc(-c2ccc(OC)c(OC)c2)cc(C(F)(F)F)n1 | -6.57% |
| O=C(NCC(c1cccs1)S(=O)(=O)c1cccs1)c1ccc(F)c(F)c1 (stereo unspecified) | -9.38% |
| CCOc1ccc(CCNC(=O)c2ccc3c(c2)N(Cc2ccc(F)cc2)CCS3)cc1 | -8.54% |
| COC(=O)c1sccc1S(=O)(=O)N(CC(=O)Nc1cc(C)ccc1C)c1ccc(C)c(C)c1 | -0.938% |
| CCC(C)NC(=O)c1ccc2c(c1)sc1nc(-c3ccc(OC)cc3)cn12 (stereo unspecified) | 2.49% |
| Cc1ccc(N2CC(NC(=O)c3ccc(S(=O)(=O)N(C)C)cc3)CC2=O)cc1C (stereo unspecified) | -21.3% |
| CCOc1ccc(CCNC(=O)c2ccc(-n3c(C)cc4c3CCCC4)cc2)cc1OCC | 9.81% |
| CCCc1nnc(-c2cc(OC)c(OC)c(OC)c2)o1 | active: 30% |
| CCOc1ccc(N2CC(NC(=O)c3ccc4c(c3)OCO4)CC2=O)cc1 (stereo unspecified) | 0.0204% |
| CC(C)(C)c1nn(-c2ccccc2)c2[nH]c(=O)c(C=O)cc12 | active: 38.8% |
| CCCCNc1nc2c(S(=O)(=O)c3ccc(C)cc3)nnn2c2ccsc12 | -10.9% |

| Compound | inhibition |
| --- | --- |
| CCOCCc1nnc(NC(=O)C(=O)c2cc(C)n(-c3ccc(C)c(C)c3)c2C)s1 | 11.7% |
| O=C(Nc1ccccc1C(=O)OCc1cc(=O)n2nc(C3CC3)sc2n1)c1ccc(Cl)cc1 | 9.29% |
| Cc1ccc(C)c(N2CCN(c3nc4ccc(C)cc4nc3-n3nc(C)cc3C)CC2)c1 | 9.24% |
| Cc1cc(C)n(CCC(=O)Nc2ccc(Cl)cc2)n1 | 14.1% |
| Cc1c(C)n(Cc2ccccc2)c2ccc(C(=O)NCC(C)c3ccccc3)cc12 (stereo unspecified) | 12.4% |
| Cc1ccc(N2CCN(S(=O)(=O)c3nnc(NC(=O)c4ccccc4)s3)CC2)cc1 | -18.4% |
| CCCc1ccc(OCc2ccc(C(=O)N3CCSCC3)o2)cc1 | active: 38.6% |
| COc1ccc(N2CCN(C(=O)c3cc4c(=O)oc5ccc(C)cc5c4s3)CC2)cc1 | -15.4% |
| CCc1ccc2ncc3c(-c4ccc(F)cc4)nn(CC(=O)NC4CCCCC4)c3c2c1 | 10.5% |
| CCOC(=O)Cn1c(=O)n(-c2cccc(Cl)c2)c2nc(-c3ccccc3Cl)nc(C(N)=O)c21 | -7.93% |
| CN(C)c1ccc(CNC(=O)Cc2ccc(NC(=O)N3CCCCc4ccccc43)cc2)cc1 | -7.25% |
| Cc1ccccc1OC(=O)c1nc(SCc2ccccc2F)ncc1Cl | -22.9% |
| CC(=O)N1c2ccc(S(=O)(=O)N3CCC(C(=O)Nc4cccc(Cl)c4C)CC3)cc2CC1C (stereo unspecified) | 5.21% |
| N#CC(C#N)=C1C=C2C=C(N3CCCCCC3)CCC2CC1 (stereo unspecified) | active: 82.9% |
| O=C(NCCCN1CCN(c2cccc(Cl)c2)CC1)c1nc(-c2ccncc2)no1 | active: 82.5% |
| Cc1cccc(Cn2cc(S(=O)(=O)c3ccccc3)c(=O)c3cc(F)c(N4CCOCC4)cc32)c1 | 5.79% |
| Cc1cccc(C)c1NC(=O)C1CCCN1S(=O)(=O)c1ccccc1 (stereo unspecified) | -7.24% |
| COc1ccc(OC)c(CNS(=O)(=O)c2ccc3c(c2)oc(=O)n3C)c1 | 5.57% |
| COc1ccc(-c2nc3ccccc3o2)cc1NC(=O)COc1ccc(C)c(C)c1 | -1.61% |
| CCOc1ccc(C(=O)Nc2cccc(C(=O)OCc3cc(=O)n4cc(C)sc4n3)c2)cc1 | -20.1% |
| Cc1cccc2nc(Cn3c(=O)n(-c4ccc(Cl)cc4)c(=O)c4c5c(sc43)CCC5)cc(=O)n12 | -12.7% |
| COc1ccc(S(=O)(=O)N(CC(=O)N2CCc3ccccc3C2)c2ccc(C)cc2)cc1 | -12.1% |
| COc1ccc(N2C(=O)CS(=O)(=O)C23C(=O)N(Cc2ccccc2F)c2ccccc23)cc1Cl (stereo unspecified) | -5.57% |
| Cc1nn(C(C)C(=O)N2CCN(c3ccc(F)cc3)CC2)c(=O)c2c1sc1ccccc12 (stereo unspecified) | -0.532% |

| Compound | inhibition |
| --- | --- |
| CCn1cc(C(=O)NCCc2ccccc2)c(=O)c2cc(S(=O)(=O)N3CCCCCC3)ccc21 | 12.6% |
| Cc1nnc(NC(=O)CCC(=O)N2CCN(CCOc3cccc4ccccc34)CC2)s1 | active: 52.4% |
| COc1ccc(Br)cc1CNC(=O)c1cc(=O)[nH]c2ccc(S(=O)(=O)N3CCCCC3C)cc12 (stereo unspecified) | -14.9% |
| CCCNC(=O)C1CCC(Cn2c(=O)c3sccc3n(CC(=O)NCc3ccccc3)c2=O)CC1 (stereo unspecified) | 2.55% |
| CCOC(=O)c1ccc(NC(=O)CCCc2nc(-c3cc(OC)c(OC)c(OC)c3)no2)cc1 | 10.5% |
| CCOc1ccc(S(=O)(=O)N(CC(=O)Nc2ccc(OC)cc2OC)c2ccccc2)cc1 | -16.3% |
| Cc1nn(CCCC(=O)NCc2ccccc2Br)c(=O)c2c1sc1ccccc12 | 16.4% |
| CCn1c(SCC(N)=O)nc2ccccc2c1=O | active: 37.2% |
| COc1ccc(C)cc1NC(=O)C(=O)NCCc1sc(-c2cccc(C)c2)nc1C | -8.71% |
| Cc1cc(C)cc(NC(=O)Cc2csc(COc3cccc(C)c3)n2)c1 | -6.86% |
| Cc1ccccc1C(=O)Nc1ccc(S(=O)(=O)N2CCC(c3nc4ccccc4s3)CC2)cc1 | 16.7% |
| Cc1cccc(NC(=O)c2cnc3sc(N4CCCC4)nn3c2=O)c1C | -3.23% |
| CSCCC(NS(=O)(=O)c1ccc2c(c1)oc(=O)n2C)C(=O)Nc1ccc(F)c(Cl)c1 (stereo unspecified) | 15.4% |
| COc1ccc(NC(=O)c2c(NCc3cccc(F)c3)sc3c2CCC3)c(OC)c1 | -3.92% |
| COc1ccc(OC)c(CNC(=O)c2c(C)oc3ncn(CC(C)C)c(=O)c23)c1 | -4.19% |
| CCCCOc1ccc(C2=NC(c3cccs3)=Nc3ccc(OC)cc3N2)cc1 | 3.95% |
| Cc1nn(C)c(C)c1S(=O)(=O)N(CC(=O)NCCc1ccc(Cl)cc1)c1ccc(C(C)C)cc1 | -1.99% |
| COc1ccc(NC(=O)NC2CC3CCCC(C2)N3Cc2ccccc2)cc1 (stereo unspecified) | active: 46% |
| COc1cccc2sc(N(Cc3cccnc3)C(=O)c3ccco3)nc12 | -8.18% |
| O=C(NCC(c1cccnc1)N1CCN(c2ccccc2F)CC1)c1ccc(F)cc1 (stereo unspecified) | 15.7% |
| CCC1CCc2nc3sc(C(=O)Nc4cccc(F)c4)c(N)c3cc2C1 (stereo unspecified) | -7.79% |
| CCOC(=O)c1c(C)[nH]c(C)c1S(=O)(=O)NCC(=O)Nc1cccc(SC)c1 | 3.33% |
| COc1cccc(NC(=O)CSc2nc(C)c(Cc3ccccc3)c(=O)[nH]2)c1 | -6.14% |
| Cc1cccc(-c2nc3c4c(-c5ccccc5)c(-c5ccccc5)oc4ncn3n2)c1 | -17.9% |
